According to the supplement of paper PMC11417369:
± gives the standard deviation of the averaged measurements. This is one part of the list.

What follows are sequences tested on PfAP2-G AP2 domain (GST-tagged) (assay: gcPBM binding intensity (ln(normalized median fluorescence intensity)); higher = stronger DNA binding).
How it was run: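 Probes on an Agilent 4 × 180k array were primer-extended, double-stranded and 36 bp long, taken from intergenic genomic regions, with negative controls added. GST-tagged P. falciparum DNA-binding domains from E. coli, about 25 μg on average, were applied to the array for 1 h in 1× PBS containing 1% milk, 0.2 mg/ml BSA, 0.5% salmon testes DNA and 0.03% Triton X-100. Binding intensity, obtained after Alexa488 anti-GST antibody detection and a 488 nm scan, is the highest Masliner-normalised natural-log median intensity across replicate spots of either probe orientation.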

Sequence	gcPBM binding intensity (ln)
TTTCTTTTCTTCTCTATTTTTTTTTCACGGCATTAT [TGCATGCA_negctrl_site484]	9.84 ± 0.2
TCTTTTCAATTTTATATGATCTTAATATTTTATGAA [GTGCAC_negctrl_site294]	9.82 ± 0.11
TTTTTTTTTTTTTACACACACAAAATATTATAGGTA [CACACA_site7209]	10 ± 0.38
ATTTTTTACATACTCAAATGTTTTAATTTTTTATAT [CACACA_negctrl_site1213]	9.875 ± 0.007
ATTCATATGAAACACACACACACACCCATAAAAAAA [CACACA_site3246]	10.3 ± 0.35
TAATGGAGAAAAAAAAAACACACGGTACATTCAAAG [CACACA_site3117]	10.6 ± 0.23
AAGGGAAAATAATAAAAGAAAAAGAAAAAAAAAAAA [CACACA_negctrl_site1518]	9.615 ± 0.021
AAATATTACATTTGTTAAATAATATGTTATACATAA [XGTACX_negctrl_site484]	9.65
TTTTATAAAGGAAAAGCATGCAGACTAAAAGATCAT [TGCATGCA_site150]	10.1 ± 0.14
TATATATATATATATTGTACTTTATATGTTCTTATA [XGTACX_site7545]	11.2 ± 0.73
ACAATATTTTTTTATAAACACACATATATATAAATA [CACACA_site9175]	9.97 ± 0.15
TATAGTGATATATACACACACTTGTCTTGTAAAAAT [CACACA_site6594]	10.12 ± 0.078
GAGAGGAACATTATATGTACATATTAATTCTAAAAT [XGTACX_site5433]	11.1 ± 0.57
ACAAATAAGTTTTATACACACATATAAGTAAATACA [CACACA_site4157]	9.905 ± 0.007
TAATCCATAAGAAGCACACACATATATATATATTTT [CACACA_site1399]	9.835 ± 0.049
TATTAATTATTATGACATACATATCAGTTATTAAAA [CACACA_negctrl_site600]	9.71 ± 0.042
TGTATAAAAATTTATACACACATTTTATATATTTCA [CACACA_site1015]	9.68 ± 0.13
TATTATAATATGCCTTGTACATATAACAAATTTATT [XGTACX_site108]	10.8 ± 0.52
TTTTTTTCACAAAATACACACAATATATTTTATATC [CACACA_site1138]	9.945 ± 0.064
GTATACATGCAAATTTTTATTTACAACCCCAAAAAG [XGTACX_negctrl_site255]	10.4 ± 0.25
TTTTCATAATATACATGTACATATATAAATTATTAA [XGTACX_site5206]	11.2 ± 0.67
TTCTTTTTTTTTATCACACATATTACAATCTAGTGC [CACACA_site4697]	10 ± 0.028

Sequence	gcPBM binding intensity (ln)
AAAATAATATTTCCTTGTACACATATGTATTTGTTC [XGTACX_site4430]	11.3 ± 0.69
TTTATTTATTACTAAAGTACTAAATCATATTATTAT [XGTACX_site2574]	10.6 ± 0.54
ATGAACAAGTGGCACACACACATTATAACTAATTTA [CACACA_site5731]	10.3 ± 0.26
TTTTGGATTGAGGACCTTTTTATAGAATTATGTTTT [TGCATGCA_negctrl_site544]	10.4 ± 0.18
ATATATAATTTTTACACACGCAATAAATATATATAT [CACACA_site4283]	9.95
TTTATTTTCCAAAGGGTGCACATAGTTGAAACGATA	10.7 ± 0.72
AATAAAGCAATAAATACACACATATTTATATTTATA [CACACA_site7390]	9.84 ± 0.13
GTTTCCTTAATATTCACACACATATATATAATATAT [CACACA_site1856]	10.13 ± 0.071
ATGTTATAAGATTTATGTACACACATATACACACCT [XGTACX_site1316]	11.4 ± 0.79
TTAACATAAATATATACACACCAATGATGGCATTTA [CACACA_site4952]	9.805 ± 0.007
TATATATAATATATATGTACGTATATATATAATATA [XGTACX_site8383]	11.4 ± 0.87
AATATACAAAAAAAAAAAAAAAAAAAAAAGATGGAA [TGCATGCA_negctrl_site550]	9.665 ± 0.064
CGAACACAAACACAAACACACATCATATATATATAT [CACACA_site4857]	10.1 ± 0.28
ATTTTGGAAATAATATGTACATATACATAATATATA [XGTACX_site4177]	11.3 ± 0.76
GCAAATCTTATATGAAGTACATATCTTATAAATAAA [XGTACX_site6903]	11.2 ± 0.79
TTTATTATATTTTTTTGTACATATTGATGTATATAA [XGTACX_site6527]	11 ± 0.53
AGCAAAATGAAATAAATTGGAAAATATTACTGAACG [CACACA_negctrl_site1433]	9.71 ± 0.18
ATAAAAAAAAAAAGAAGTACATGTATTAAAATTTAT [XGTACX_site3927]	11.5 ± 0.62
AACAAAGGATTTATATATACATACATACATACATAA [GTGCAC_negctrl_site469]	9.825 ± 0.035
TGAATTTACAAAATCATGCACTTAATTACAGAATAA	9.875 ± 0.021
AAAAGTCTTCAAATTTGTACATATATATATATATAT [XGTACX_site3404]	10.8 ± 0.38
GGTACATACAGACACACACACAAAAAAAAAAAAATA [CACACA_site6844]	10.3 ± 0.52

Sequence	gcPBM binding intensity (ln)
GAGAAATGGAGACACACACACATATTATATATATAT [CACACA_site1532]	10.3 ± 0.24
TGTATAAAATTCCATTGTACATATTATTTTACGACA [XGTACX_site7764]	11.1 ± 0.61
ATGTTAAACAAATCTATACACACGTATATGACAAAA [CACACA_site1783]	10.2 ± 0.16
TTAATATTAATTATATGTACATATAATATATATATA [XGTACX_site1757]	11.3 ± 0.67
ATCTTTTCATATTGCTGTACAAATTATTTTCATTCG [XGTACX_site492]	10.9 ± 0.47
TTTACAACATCAAAATGTACGCATTATTATTATTAA [XGTACX_site3017]	11.4 ± 1.1
AAAAAAAAAAAACACACACACACACCCACCCATACA [CACACA_site2859]	10.5 ± 0.23
ACATATAATATAAATTGTACATATAAATATATTATT [XGTACX_site4268]	11.1 ± 0.61
TGTGTATAAATATACACACACATATAAATATTTTAA [CACACA_site7005]	10.1 ± 0.18
TATTTAAAAAATAATACACACATAATATAACAAAAT [CACACA_site3174]	10.14 ± 0.049
ACGTTATACACAGTACGTACATAACTATCTAAATGT [XGTACX_site5068]	11.5 ± 0.91
TCATATATTTTATACATACACACATATATATATTTT [CACACA_site3941]	9.97 ± 0.15
TTCACTTTTTTTTTTTTTTTTTTTTTTTTTTTTATT [GTGCAC_negctrl_site350]	9.47 ± 0.18
ATGCATAATATACTCTTACACACCATTTCTATATAC [CACACA_site1461]	10.1 ± 0.12
TATAACATAGGACACACACACATACATACACAAAAA [CACACA_site5062]	10.8 ± 0.56
TGGAGGTCAGTTCACAGTACCCAGGAAATCTGCGGA [XGTACX_site2556]	11 ± 0.86
TTTTCCTCTTAAAATATACACACTGATTTAAGAAAA [CACACA_site3301]	9.88 ± 0.085
ACAAAGTTATAATTCTTGCACTTTAAGGTTCATTTA	10.1 ± 0.33
ATAAATATCTAGGGTTCACACATTATATATCTGTAT [CACACA_site5702]	10.07 ± 0.028
CGTGAATATATGATATGTACTTATAAAAATTTGTGC [XGTACX_site5480]	11.3 ± 0.73
GGTATACACAAGTATACACACATATATATATATATA [CACACA_site9063]	10.3 ± 0.54
TCATAAATATGAAAAAGTACAAAGGTAGATTTTGAA [XGTACX_site4535]	11.2 ± 0.76

Sequence	gcPBM binding intensity (ln)
TATATATATATTATATGTACGTATGTATGTATATAT [XGTACX_site6451]	11.3 ± 0.8
AAACGATTAATGTGTACACACATAGTTATAAACCTA [CACACA_site2110]	11.6 ± 0.91
TTTTTTTTTTTTTTTTTTTTTTTTTTGTTCAGGCCT [GTGCAC_negctrl_site143]	9.58 ± 0.34
ACGTAATAAAATAGTTGTACAACTTTTTATAATATA [XGTACX_site4393]	11.8 ± 1.1
TATTAATTATATTTATGTACATAATCATATTATTAT [XGTACX_site7938]	11.2 ± 0.71
TTTTTCTTTTTTTCTTTTTTTATAAAACTTAATTGT [CACACA_negctrl_site384]	9.885 ± 0.021
AAAAAAAAAAAAAAATATATATATATATACATACAT [CACACA_negctrl_site317]	9.92 ± 0.31
AGTAACAAAAGAAAAAAATATGCAAACATATATATA [XGTACX_negctrl_site468]	9.685 ± 0.092
TTCATTTTTTGCTTTCAACACACATACAATATATAT [CACACA_site9369]	10.2 ± 0.21
AGAAATATATATATATATATATATATATATATATAT [TGCATGCA_negctrl_site375]	10 ± 0.88
AATTTAACCACTAAAAGTACACACATATATACATAT [XGTACX_site8352]	11.4 ± 0.92
ATATAAATATATATATGTACATAATATATTATGTTT [XGTACX_site2806]	11.1 ± 0.61
GGACACCTTCAAAACACACATACAAATAAATAGAAA [CACACA_site3305]	10.4 ± 0.2
AAAGAAAGAAAGAATACACACACACCGATATATATA [CACACA_site9246]	9.765 ± 0.021
AACATATATTTTGAAACACACACATATATAATATAC [CACACA_site8301]	10.04 ± 0.035
AGGATAATATACAAAAGTACATAAAACTAAAAAAAC [XGTACX_site605]	11.4 ± 0.92
ATATATATAAAATATTATATTAAAAAAAATAAAATA [GTGCAC_negctrl_site87]	9.665 ± 0.064
TAGTTTTTTATATATTGTACTTAGAATATATTATAT [XGTACX_site3662]	11.2 ± 0.73
AATGTGTATATATATACACACACATATATATATTTT [CACACA_site8596]	9.975 ± 0.049
TCCTTTTTACTACTAGTGCATTATTTACAAGGTCCG [GTGCAC_site9441]	10.3 ± 0.36
CATACACATTTCATATGTACATAGATTGAAGGGAAG [XGTACX_site116]	11 ± 0.54
TATTTTTATTTATAACGTACGAAAAATGTATATAAT [XGTACX_site703]	11.1 ± 0.62
